# The other results are listed elsewhere or left out.
# Columns and labels:
# Experiment in all cases: glycan array binding signal (z-score within array); higher = stronger binding
# Conditions in all cases: glycan notation: IUPAC condensed, linker removed
# Gal(b1-2)Gal = biological target: Gal(b1-2)Gal
# In short: (§1)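 Glycan array binding is given as a within-array Z-score, which can be read as non-binding when negative. The arrays, 3228 of them, came from the Consortium for Functional Glycomics database and were retained only where the protein sequence was available. Z-scores were averaged across arrays of the same protein sequence at different concentrations or buffers and across linkers.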
# Gal(b1-3)Gal = biological target: Gal(b1-3)Gal
# In short: as §1
# Gal(b1-3)Gal(b1-4)GlcNAc = biological target: Gal(b1-3)Gal(b1-4)GlcNAc
# In short: as §1
# Gal(b1-3)GalNAc = biological target: Gal(b1-3)GalNAc
# In short: as §1
# [1] = biological target: Gal(b1-3)GalNAc(a1-3)[Fuc(a1-2)]Gal(b1-4)Glc
# In short: as §1
# [2] = biological target: Gal(b1-3)GalNAc(a1-3)[Fuc(a1-2)]Gal(b1-4)GlcNAc
# In short: as §1
# Gal(b1-3)GalNAc(b1-3)Gal = biological target: Gal(b1-3)GalNAc(b1-3)Gal
# In short: as §1
# [3] = biological target: Gal(b1-3)GalNAc(b1-3)Gal(a1-4)Gal(b1-4)Glc
# In short: as §1
# [4] = biological target: Gal(b1-3)GalNAc(b1-4)Gal(b1-4)Glc
# In short: as §1
# [5] = biological target: Gal(b1-3)GalNAc(b1-4)[Neu5Ac(a2-3)]Gal(b1-4)Glc
# In short: as §1
# Gal(b1-3)GlcNAc = biological target: Gal(b1-3)GlcNAc
# In short: as §1
# [6] = biological target: Gal(b1-3)GlcNAc(a1-3)Gal(b1-4)GlcNAc
# In short: as §1
# [7] = biological target: Gal(b1-3)GlcNAc(a1-6)Gal(b1-4)GlcNAc
# In short: as §1
# Gal(b1-3)GlcNAc(b1-2)Man = biological target: Gal(b1-3)GlcNAc(b1-2)Man
# In short: as §1
# [8] = biological target: Gal(b1-3)GlcNAc(b1-2)Man(a1-3)[Gal(b1-3)GlcNAc(b1-2)Man(a1-6)]Man(b1-4)GlcNAc(b1-4)GlcNAc
# In short: as §1
# [9] = biological target: Gal(b1-3)GlcNAc(b1-2)Man(a1-3)[Gal(b1-3)GlcNAc(b1-2)Man(a1-6)]Man(b1-4)GlcNAc(b1-4)[Fuc(a1-6)]GlcNAc
# In short: as §1
# [10] = biological target: Gal(b1-3)GlcNAc(b1-2)Man(a1-3)[GlcNAc(b1-4)][Gal(b1-3)GlcNAc(b1-2)Man(a1-6)]Man(b1-4)GlcNAc(b1-4)GlcNAc
# In short: as §1
# [11] = biological target: Gal(b1-3)GlcNAc(b1-2)[Gal(b1-3)GlcNAc(b1-6)]Man(a1-6)[Gal(b1-3)GlcNAc(b1-2)Man(a1-3)]Man(b1-4)GlcNAc(b1-4)GlcNAc
# In short: as §1
# [12] = biological target: Gal(b1-3)GlcNAc(b1-3)Gal(b1-3)GlcNAc
# In short: as §1
# [13] = biological target: Gal(b1-3)GlcNAc(b1-3)Gal(b1-4)Glc
# In short: as §1
# [14] = biological target: Gal(b1-3)GlcNAc(b1-3)Gal(b1-4)GlcNAc
# In short: as §1
# [15] = biological target: Gal(b1-3)GlcNAc(b1-3)Gal(b1-4)GlcNAc(b1-2)Man(a1-3)[Gal(b1-3)GlcNAc(b1-3)Gal(b1-4)GlcNAc(b1-2)Man(a1-6)]Man(b1-4)GlcNAc(b1-4)GlcNAc
# In short: as §1
# [16] = biological target: Gal(b1-3)GlcNAc(b1-3)Gal(b1-4)GlcNAc(b1-2)[Gal(b1-3)GlcNAc(b1-3)Gal(b1-4)GlcNAc(b1-6)]Man(a1-6)[Gal(b1-3)GlcNAc(b1-3)Gal(b1-4)GlcNAc(b1-2)Man(a1-3)]Man(b1-4)GlcNAc(b1-4)[Fuc(a1-6)]GlcNAc
# In short: as §1
# [17] = biological target: Gal(b1-3)GlcNAc(b1-3)Gal(b1-4)GlcNAc(b1-3)Gal(b1-4)GlcNAc(b1-2)[Gal(b1-3)GlcNAc(b1-3)Gal(b1-4)GlcNAc(b1-3)Gal(b1-4)GlcNAc(b1-6)]Man(a1-6)[Gal(b1-3)GlcNAc(b1-3)Gal(b1-4)GlcNAc(b1-3)Gal(b1-4)GlcNAc(b1-2)Man(a1-3)]Man(b1-4)GlcNAc(b1-4)[Fuc(a1-6)]GlcNAc
# In short: as §1
# [18] = biological target: Gal(b1-3)GlcNAc(b1-3)Gal(b1-4)GlcNAc(b1-6)[Gal(b1-3)GlcNAc(b1-3)]Gal(b1-4)Glc
# In short: as §1
# [19] = biological target: Gal(b1-3)GlcNAc(b1-3)Gal(b1-4)[Fuc(a1-3)]GlcNAc
# In short: as §1
# [20] = biological target: Gal(b1-3)GlcNAc(b1-3)Gal(b1-4)[Fuc(a1-3)]GlcNAc(b1-6)[Gal(b1-3)GlcNAc(b1-3)]Gal(b1-4)Glc
# In short: as §1
# [21] = biological target: Gal(b1-3)GlcNAc(b1-3)GalNAc
# In short: as §1
# [22] = biological target: Gal(b1-3)GlcNAc(b1-6)Gal(b1-4)GlcNAc
# In short: as §1
# [23] = biological target: Gal(b1-3)GlcNAc(b1-6)GalNAc
# In short: as §1
# [24] = biological target: Gal(b1-3)GlcNAc(b1-6)[Gal(b1-3)]GalNAc
# In short: as §1
# Gal(b1-3)GlcNAc6S = biological target: Gal(b1-3)GlcNAc6S
# In short: as §1
# [25] = biological target: Gal(b1-3)[Fuc(a1-4)]GlcNAc
# In short: as §1
# [26] = biological target: Gal(b1-3)[Fuc(a1-4)]GlcNAc(b1-2)Man
# In short: as §1
# [27] = biological target: Gal(b1-3)[Fuc(a1-4)]GlcNAc(b1-2)Man(a1-3)[Gal(b1-3)[Fuc(a1-4)]GlcNAc(b1-2)Man(a1-6)]Man(b1-4)GlcNAc(b1-4)[Fuc(a1-6)]GlcNAc
# In short: as §1
# [28] = biological target: Gal(b1-3)[Fuc(a1-4)]GlcNAc(b1-3)Gal(b1-3)[Fuc(a1-4)]GlcNAc
# In short: as §1
# [29] = biological target: Gal(b1-3)[Fuc(a1-4)]GlcNAc(b1-3)Gal(b1-4)[Fuc(a1-3)]GlcNAc
# In short: as §1
binder,measurement,setting,value
PNGase F (Flavobacterium meningosepticum) (protein) GIPAPADNTVNIKTFDKVKNAFGDGLSQSAEGTFTFPADVTAVKTIKMFIKNECPNKTCDEWDRYANVYVKNKTTGEWYEIGRFITPYWVGTEKLPRGLEIDVTDFKSLLSGNTELKIYTETWLAKGREYSVDFDIVYGTPDYKYSAVVPVVQYNKSSIDGVPYGKAHTLALKKNIQLPTNTEKAYLRTTISGWGHAKPYDAGSRGCAEWCFRTHTIAINNSNTFQHQLGALGCSANPINNQSPGNWTPDRAGWCPGMAVPTRIDVLNNSLIGSTFSYEYKFQNWTNNGTNGDAFYAISSFVIAKSNTPISAPVVTNLDPHHHHHH,glycan array binding signal (z-score),Gal(b1-2)Gal,0.746
same,glycan array binding signal (z-score),Gal(b1-3)Gal,0.615
same,glycan array binding signal (z-score),Gal(b1-3)Gal(b1-4)GlcNAc,-0.228
same,glycan array binding signal (z-score),Gal(b1-3)GalNAc,0.044
same,glycan array binding signal (z-score),[1],-0.216
same,glycan array binding signal (z-score),[2],-0.308
same,glycan array binding signal (z-score),Gal(b1-3)GalNAc(b1-3)Gal,0.019
same,glycan array binding signal (z-score),[3],0.036
same,glycan array binding signal (z-score),[4],0.042
same,glycan array binding signal (z-score),[5],-0.306
same,glycan array binding signal (z-score),Gal(b1-3)GlcNAc,-0.042
same,glycan array binding signal (z-score),[6],-0.309
same,glycan array binding signal (z-score),[7],-0.297
same,glycan array binding signal (z-score),Gal(b1-3)GlcNAc(b1-2)Man,0.106
same,glycan array binding signal (z-score),[8],-0.261
same,glycan array binding signal (z-score),[9],-0.351
same,glycan array binding signal (z-score),[10],0.009
same,glycan array binding signal (z-score),[11],-0.167
same,glycan array binding signal (z-score),[12],-0.206
same,glycan array binding signal (z-score),[13],-0.185
same,glycan array binding signal (z-score),[14],-0.283
same,glycan array binding signal (z-score),[15],-0.316
same,glycan array binding signal (z-score),[16],0.675
same,glycan array binding signal (z-score),[17],-0.113
same,glycan array binding signal (z-score),[18],-0.348
same,glycan array binding signal (z-score),[19],-0.213
same,glycan array binding signal (z-score),[20],-0.21
same,glycan array binding signal (z-score),[21],-0.268
same,glycan array binding signal (z-score),[22],-0.334
same,glycan array binding signal (z-score),[23],-0.626
same,glycan array binding signal (z-score),[24],-0.098
same,glycan array binding signal (z-score),Gal(b1-3)GlcNAc6S,-0.196
same,glycan array binding signal (z-score),[25],0.07
same,glycan array binding signal (z-score),[26],-0.017
same,glycan array binding signal (z-score),[27],0.675
same,glycan array binding signal (z-score),[28],-0.309
same,glycan array binding signal (z-score),[29],-0.321

# From the supplement of paper PMC8728848
